± gives the standard deviation of the averaged measurements. The list shows a part of the results.

This assay deals with PfAP2-LT AP2 domain (GST-tagged). As to the kind of experiment: gcPBM binding intensity (ln(normalized median fluorescence intensity)); higher = stronger DNA binding. In a few lines:
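Using an Agilent 4 × 180k array, primer-extended double-stranded 36-bp intergenic genomic probes and negative controls were exposed for 1 h to GST-fused P. falciparum DNA-binding domains expressed in E. coli. Binding was carried out in 1× PBS with 1% milk, 0.2 mg/ml BSA, 0.5% salmon testes DNA and 0.03% Triton X-100, and protein was detected with Alexa488 anti-GST antibody and a 488 nm scan. Binding intensity is the highest Masliner-normalised natural-log median intensity across replicate spots of either probe orientation.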
For the sequence “TATAGGTATGTATGTACACACAAAAAATGGAATATA [CACACA_site7704]”, the “gcPBM binding intensity (ln)” value was 9.38 ± 0.39.
Regarding “CATATATATTTGTTCACACACACACCCAAAAAAAAA [CACACA_site2476]”, the “gcPBM binding intensity (ln)” value amounted to 9.61 ± 0.28.
Regarding “GAAAAAGTTATAAATTGTACTAAATATTAAATATTG [XGTACX_site7890]”, the “gcPBM binding intensity (ln)” value is 8.4 ± 0.56.
Turning to “TTTAAAATGGGACTTTGAAAAAAAAAAAAAAAAACA [TGCATGCA_negctrl_site111]”, the “gcPBM binding intensity (ln)” value is 8.22 ± 0.48.
Consider “ATATATATATATATTTGTACATATATACATAAAATT [XGTACX_site359]”, for which the “gcPBM binding intensity (ln)” value stood at 8.97 ± 0.26.
The same measure for “TATATATCATTTAAAACACACAAAAAAAAAAGTTAT [CACACA_site6191]”: 8.78 ± 0.52.
For “ATAAATATAAAAAAATGTACATATAGTAATACATAC [XGTACX_site508]”, the “gcPBM binding intensity (ln)” value stood at 8.96 ± 0.5.
As for “GACTTTTCATTTATAGTGCAAGTTTTTTTTTTTTTT [GTGCAC_site9698]”, the “gcPBM binding intensity (ln)” value was found to be 8.69 ± 0.55.
Turning to “ATAAGTATAAGAATCAGTACACAGTTTCTACATACT [XGTACX_site5834]”, the “gcPBM binding intensity (ln)” value worked out at 8.84 ± 0.4.
As for “GAAATAAAAAGAAATGCATGTAATTTTTTTTTTTTT [TGCATGCA_site928]”, the “gcPBM binding intensity (ln)” value was 8.65 ± 0.47.
On to “TTGTATTTTTAAATGACACACACATATATATATATA [CACACA_site8481]”, for which the “gcPBM binding intensity (ln)” value amounted to 9.47 ± 0.29.
As for “AATAAATAAGCACATACACACATACATACATACATA [CACACA_site6075]”, the “gcPBM binding intensity (ln)” value stood at 9.54 ± 0.26.
The same measure for “AAGTTATAAAAATAAAGTACAAAGTAGCTATTTTTT [XGTACX_site3144]”: 8.67 ± 0.54.
The same measure for “ATTAAAACCAATTAAAAAAAATTTATAATGGAAGCA [TGCATGCA_negctrl_site273]”: 8.44 ± 0.41.
“TATTATTGTTGTTCATGTACACACTATAATAAAAGC [XGTACX_site8957]”: the “gcPBM binding intensity (ln)” value was 8.8 ± 0.39.
“AATGACTAAATTTAAACACACAAGGGGAGTTTACTT [CACACA_site918]”: the “gcPBM binding intensity (ln)” value is 8.83 ± 0.35.
The same measure for “GAGATAAAATAAAACACACACATATATATATATAAT [CACACA_site5246]”: 9.59 ± 0.36; for “ATATATGTATGTTAGACACACATATTATAATATGTT [CACACA_site116]”: 9 ± 0.41.
“AAAACGGATTCTTTATAAATAAATAAATAAATATAA [XGTACX_negctrl_site157]”: the “gcPBM binding intensity (ln)” value stood at 8.45 ± 0.51.
As to “AATACATACACAAATACACACACAAATACATACACA [CACACA_site8134]”, the “gcPBM binding intensity (ln)” value was found to be 9.9 ± 0.3.
The same measure for “TTTTTTTTTTTTTTTACACACAAATGTATACTATAT [CACACA_site1787]”: 8.85 ± 0.42; for “TATTAAATATTCATATGTACATATAGTTTATAAATT [XGTACX_site7455]”: 8.53 ± 0.46.
In the case of “TATAAATAAATGTGTACACACATTAAAATCAAACGT [CACACA_site2340]”, the “gcPBM binding intensity (ln)” value was 9.36 ± 0.35.
Consider TTATGTGCTTTAAAAGTGCATTTTTTTTTTTTTTTT, for which the “gcPBM binding intensity (ln)” value came to 8.36 ± 0.33.
For the sequence “TATATGTTTTATAAATGTACATATACTTAAATATTT [XGTACX_site4753]”, the “gcPBM binding intensity (ln)” value amounted to 8.54 ± 0.43.
Consider “TTTATCAAAAAAAAAAAAAAAAAAAAAAAAAATTGT [CACACA_negctrl_site176]”, for which the “gcPBM binding intensity (ln)” value was found to be 8.38 ± 0.49.
For “TTATTTGTATCCATTTCACACATTTTATATAGTATC [CACACA_site5989]”, the “gcPBM binding intensity (ln)” value was 8.96 ± 0.43.
Consider TTTTTTGTTATGCGGGTGCATATAATAATGTGATGA, for which the “gcPBM binding intensity (ln)” value came out at 8.63 ± 0.4.
As for “AATACATAATAACGTTGTACAAAAATTATAATACAT [XGTACX_site6508]”, the “gcPBM binding intensity (ln)” value stood at 9.18 ± 0.42.
Take “ACTATTAAGAATAAAGAAATATGTAATTGTATTTAA [CACACA_negctrl_site516]”: the “gcPBM binding intensity (ln)” value is 8.41 ± 0.4.
For “ATTAAAAATTAATATAAACACACAAAAATTAATAAA [CACACA_site8019]”, the “gcPBM binding intensity (ln)” value was 8.76 ± 0.42.
As for “TCCTCGCGTAATACTTTTCAAATAAAAAAAATAAAA [TGCATGCA_negctrl_site403]”, the “gcPBM binding intensity (ln)” value is 8.17 ± 0.44.
As to “GTGTCAAATTTTATAACACACAAAAGATTATATAAG [CACACA_site4086]”, the “gcPBM binding intensity (ln)” value is 8.87 ± 0.43.
Consider “CCAATATATACATATATATAGTTATATATATTTCCT [TGCATGCA_negctrl_site38]”, for which the “gcPBM binding intensity (ln)” value turned out to be 8.77 ± 0.36.
In the case of “TTTTTTTTTTTTTATTGTACTAGTAGATATATATAC [XGTACX_site3463]”, the “gcPBM binding intensity (ln)” value came to 8.7 ± 0.45.
For the sequence “AAACATACTTGATGCAGTACACATTATAAGCACATA [XGTACX_site3359]”, the “gcPBM binding intensity (ln)” value turned out to be 8.93 ± 0.39.
Consider “ATATATGTATATGTGTGTACATATATGTTTATTATT [XGTACX_site6043]”, for which the “gcPBM binding intensity (ln)” value was found to be 9.15 ± 0.29.
Regarding “GGACTTAAATAAAATGGTACAGAATTTATATATATT [XGTACX_site8214]”, the “gcPBM binding intensity (ln)” value was determined as 8.63 ± 0.47.
Regarding “TAATGGAATACATATAGTACATAATATTACATACAT [XGTACX_site5737]”, the “gcPBM binding intensity (ln)” value was 8.88 ± 0.44.
For “AAACAAAAAAGTAAGAAAAGGGATGATTGGATCCAA [CACACA_negctrl_site1230]”, the “gcPBM binding intensity (ln)” value was 8.7 ± 0.64.
For “AGATATTATAATTAATGTACAAAAAGAAAAAATAGA [XGTACX_site8964]”, the “gcPBM binding intensity (ln)” value was 8.79 ± 0.39.
As to “ATAAAAATACAGTTAACACACATGTGGATATATATG [CACACA_site3771]”, the “gcPBM binding intensity (ln)” value turned out to be 9.35 ± 0.49.
Consider “AACATAAAAATGAACATACACACATATATATATATA [CACACA_site2497]”, for which the “gcPBM binding intensity (ln)” value was 9.96 ± 0.33.
For the sequence GTATATCATTTTGGGGTGCTTAAAAATAATGAATAC, the “gcPBM binding intensity (ln)” value was 8.67 ± 0.35.
The same measure for “TATATAACATAATATACACACATTATGTGCGTAATT [CACACA_site4073]”: 8.99 ± 0.34; for “TTTTTTTTTTTTTATTGTACAAAGGTATAAAATAAT [XGTACX_site2396]”: 8.23 ± 0.37.
The same measure for “TATTATTCTGTATTTGCATGTGATCATATATATGTA [TGCATGCA_site1053]”: 8.98 ± 0.37.
For the sequence “CATATGTATATGACTACACACAAGGGTGTACAGATA [CACACA_site4776]”, the “gcPBM binding intensity (ln)” value was 9.1 ± 0.38.
Consider “TTTTTAATTTATTAAGAAGTAAAGAATAACTCTTTT [TGCATGCA_negctrl_site101]”, for which the “gcPBM binding intensity (ln)” value worked out at 7.9 ± 0.38.
The same measure for “AAACATTAAAATAACTCACACATTTTTCTAGTCTTC [CACACA_site4612]”: 8.82 ± 0.37.
In the case of “ATATATTTAATATTCACACATAATTATTTTTACTCT [CACACA_site5438]”, the “gcPBM binding intensity (ln)” value was determined as 8.79 ± 0.46.
In the case of “ATATAATGATAATATTGTACATGTTATATTTCAATA [XGTACX_site8645]”, the “gcPBM binding intensity (ln)” value stood at 8.66 ± 0.4.
Regarding “TATAGATAAGAATATGCACACATTTTATTTTTTTTT [CACACA_site1982]”, the “gcPBM binding intensity (ln)” value stood at 8.8 ± 0.46.
The same measure for “TTGTAATATCTTGTCACACATATATATATATATATA [CACACA_site4937]”: 9.53 ± 0.18.
As for “AGTTTTCCATGTTAATGTACTTAACAATACCATAAT [XGTACX_site209]”, the “gcPBM binding intensity (ln)” value is 8.77 ± 0.35.
On to “ATTTATTCATAGACAACAAGAAAAAAAAAAAAAATT [CACACA_negctrl_site1168]”, for which the “gcPBM binding intensity (ln)” value is 8.5 ± 0.47.
Next, “TATATCCATATTGTATGTACACATATAATACCAATG [XGTACX_site7230]”: 8.84 ± 0.4.

Values taken from the supplement of paper PMC11417369.
